# Test results as given in the supplement of paper PMC8728848.
# The other results are listed elsewhere or left out.
# B1: GSL-I-B4 (Griffonia simplicifolia) (protein)
# chain: NFWSDVEDSIIFQGDANTTAGTLQLCKTNQYGTPLQWSAGRALYSDPVQLWDNKTESVASFYTEFTFFLKITGNGPADGLAFFLAPPDSDVKDAGEYLGLFNKSTATQPSKNQVVAVEFDTWTNPNFPEPSYRHIGINVNSIVSVATKRWEDSDIFSGKIATARISYDGSAEILTVVLSYPDGSDYILSHSVDMRQNLPESVRVGISASTGNNQFLTVYILSWRFSSNLQSTSVKAAMEPEITRTVV
# Tests used:
# Assay in all cases: glycan array binding signal (z-score within array); higher = stronger binding
# Conditions in all cases: glycan notation: IUPAC condensed, linker removed
# [1] = target: Fuc(a1-2)Gal(b1-4)GlcNAc(b1-3)Gal(b1-4)GlcNAc(b1-2)Man(a1-3)[Fuc(a1-2)Gal(b1-4)GlcNAc(b1-3)Gal(b1-4)GlcNAc(b1-2)Man(a1-6)]Man(b1-4)GlcNAc(b1-4)GlcNAc
# Procedure, shortened: (§1)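 Arrays were curated from the Consortium for Functional Glycomics database, 3228 in total, and kept only where the protein sequence was available. Binding is expressed as a within-array Z-score. This score was averaged across arrays of the same protein sequence at different concentrations or buffers and across linkers, and negative values can be read as non-binding.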
# [2] = target: Fuc(a1-2)Gal(b1-4)GlcNAc(b1-3)Gal(b1-4)GlcNAc(b1-3)Gal(b1-4)GlcNAc
# Procedure, shortened: as §1
# [3] = target: Fuc(a1-2)Gal(b1-4)GlcNAc(b1-3)GalNAc
# Procedure, shortened: as §1
# [4] = target: Fuc(a1-2)Gal(b1-4)GlcNAc(b1-3)[Fuc(a1-2)Gal(b1-4)GlcNAc(b1-6)]GalNAc
# Procedure, shortened: as §1
# [5] = target: Fuc(a1-2)Gal(b1-4)GlcNAc(b1-3)[Fuc(a1-3)[Gal(b1-4)]GlcNAc(b1-6)]Gal(b1-4)Glc
# Procedure, shortened: as §1
# [6] = target: Fuc(a1-2)Gal(b1-4)GlcNAc(b1-6)GalNAc
# Procedure, shortened: as §1
# [7] = target: Fuc(a1-2)Gal(b1-4)GlcNAc6S
# Procedure, shortened: as §1
# [8] = target: Fuc(a1-2)Gal(b1-4)[Fuc(a1-3)]GlcNAc
# Procedure, shortened: as §1
# [9] = target: Fuc(a1-2)Gal(b1-4)[Fuc(a1-3)]GlcNAc(b1-2)Man(a1-3)[Fuc(a1-2)Gal(b1-4)[Fuc(a1-3)]GlcNAc(b1-2)Man(a1-6)]Man(b1-4)GlcNAc(b1-4)[Fuc(a1-6)]GlcNAc
# Procedure, shortened: as §1
# [10] = target: Fuc(a1-2)Gal(b1-4)[Fuc(a1-3)]GlcNAc(b1-2)[Fuc(a1-2)Gal(b1-4)[Fuc(a1-3)]GlcNAc(b1-4)]Man(a1-3)[Fuc(a1-2)Gal(b1-4)[Fuc(a1-3)]GlcNAc(b1-2)Man(a1-6)]Man(b1-4)GlcNAc(b1-4)GlcNAc
# Procedure, shortened: as §1
# [11] = target: Fuc(a1-2)Gal(b1-4)[Fuc(a1-3)]GlcNAc(b1-3)Gal(b1-4)[Fuc(a1-3)]GlcNAc
# Procedure, shortened: as §1
# [12] = target: Fuc(a1-2)Gal(b1-4)[Fuc(a1-3)]GlcNAc(b1-3)Gal(b1-4)[Fuc(a1-3)]GlcNAc(b1-3)Gal(b1-4)[Fuc(a1-3)]GlcNAc
# Procedure, shortened: as §1
# [13] = target: Fuc(a1-2)Gal(b1-4)[Fuc(a1-3)]GlcNAc(b1-3)GalNAc
# Procedure, shortened: as §1
# [14] = target: Fuc(a1-2)Gal(b1-4)[Fuc(a1-3)]GlcNAc(b1-3)[Neu5Ac(a2-6)Gal(b1-4)GlcNAc(b1-6)]Gal(b1-4)Glc
# Procedure, shortened: as §1
# [15] = target: Fuc(a1-2)Gal3S(b1-4)GlcNAc
# Procedure, shortened: as §1
# [16] = target: Fuc(a1-2)Gal6S(b1-3)GlcNAc
# Procedure, shortened: as §1
# [17] = target: Fuc(a1-2)Gal6S(b1-3)GlcNAc6S
# Procedure, shortened: as §1
# [18] = target: Fuc(a1-2)Gal6S(b1-4)Glc
# Procedure, shortened: as §1
# [19] = target: Fuc(a1-2)Gal6S(b1-4)Glc6S
# Procedure, shortened: as §1
# [20] = target: Fuc(a1-2)[Gal(a1-3)]Gal
# Procedure, shortened: as §1
# [21] = target: Fuc(a1-2)[Gal(a1-3)]Gal(b1-3)GalNAc
# Procedure, shortened: as §1
# [22] = target: Fuc(a1-2)[Gal(a1-3)]Gal(b1-3)GalNAc(b1-3)Gal(a1-4)Gal(b1-4)Glc
# Procedure, shortened: as §1
# [23] = target: Fuc(a1-2)[Gal(a1-3)]Gal(b1-3)GlcNAc
# Procedure, shortened: as §1
# [24] = target: Fuc(a1-2)[Gal(a1-3)]Gal(b1-3)GlcNAc(b1-2)Man(a1-3)[Fuc(a1-2)[Gal(a1-3)]Gal(b1-3)GlcNAc(b1-2)Man(a1-6)]Man(b1-4)GlcNAc(b1-4)GlcNAc
# Procedure, shortened: as §1
# [25] = target: Fuc(a1-2)[Gal(a1-3)]Gal(b1-3)GlcNAc(b1-2)Man(a1-3)[Fuc(a1-2)[Gal(a1-3)]Gal(b1-3)GlcNAc(b1-2)Man(a1-6)]Man(b1-4)GlcNAc(b1-4)[Fuc(a1-6)]GlcNAc
# Procedure, shortened: as §1
# [26] = target: Fuc(a1-2)[Gal(a1-3)]Gal(b1-3)GlcNAc(b1-3)GalNAc
# Procedure, shortened: as §1
# [27] = target: Fuc(a1-2)[Gal(a1-3)]Gal(b1-3)GlcNAc(b1-6)GalNAc
# Procedure, shortened: as §1
# [28] = target: Fuc(a1-2)[Gal(a1-3)]Gal(b1-4)Glc
# Procedure, shortened: as §1
# [29] = target: Fuc(a1-2)[Gal(a1-3)]Gal(b1-4)GlcNAc
# Procedure, shortened: as §1
# [30] = target: Fuc(a1-2)[Gal(a1-3)]Gal(b1-4)GlcNAc(b1-2)Man
# Procedure, shortened: as §1
binder,measurement,setting,value
B1,glycan array binding signal (z-score),[1],-0.161
same,glycan array binding signal (z-score),[2],-0.148
same,glycan array binding signal (z-score),[3],-0.123
same,glycan array binding signal (z-score),[4],-0.183
same,glycan array binding signal (z-score),[5],-0.143
same,glycan array binding signal (z-score),[6],-0.172
same,glycan array binding signal (z-score),[7],-0.098
same,glycan array binding signal (z-score),[8],-0.131
same,glycan array binding signal (z-score),[9],-0.202
same,glycan array binding signal (z-score),[10],-0.15
same,glycan array binding signal (z-score),[11],-0.133
same,glycan array binding signal (z-score),[12],-0.084
same,glycan array binding signal (z-score),[13],-0.11
same,glycan array binding signal (z-score),[14],-0.18
same,glycan array binding signal (z-score),[15],-0.17
same,glycan array binding signal (z-score),[16],-0.128
same,glycan array binding signal (z-score),[17],-0.239
same,glycan array binding signal (z-score),[18],-0.165
same,glycan array binding signal (z-score),[19],-0.114
same,glycan array binding signal (z-score),[20],1.08
same,glycan array binding signal (z-score),[21],0.853
same,glycan array binding signal (z-score),[22],0.506
same,glycan array binding signal (z-score),[23],0.776
same,glycan array binding signal (z-score),[24],1.74
same,glycan array binding signal (z-score),[25],0.077
same,glycan array binding signal (z-score),[26],0.11
same,glycan array binding signal (z-score),[27],-0.033
same,glycan array binding signal (z-score),[28],0.213
same,glycan array binding signal (z-score),[29],1.62
same,glycan array binding signal (z-score),[30],0.119
